Reference: PubChem BioAssay AID686971 (National Center for Advancing Translational Sciences (NCATS), 2013)
The whole screen tested about 360,000 compounds, of which about 7,500 (2.1%) were called active. Inconclusive results, whose numbers are uncertain, are shown with a selection of clear calls. The call rests on the fitted dose curve; in most records, active means well fitted cell-killing curve with a large enough effect; inconclusive means small, poorly fitted or top-dose-only effect, or effect the other way, or another doubt; inactive means no such curve, though single readings can be large or run the other way. Potencies of inconclusive entries are left out as doubtful fits.

Assay: qHTS for induction of synthetic lethality in tumor cells producing 2HG: qHTS for the HT-1080-IDH1KD cell line;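 on activity, negative = toxicity: 0% = DMSO wells and -100% = cell-free medium wells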
Details: HT-1080 IDH1 knockdown viability, ATP luminescence, 48 h; activity, negative = toxicity: at 46.1 µM (top of the series) unless noted
Method in brief: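 Cytotoxicity counter-line: IDH1KD HT-1080, 48 h, CellTiter-Glo. Curves classed by r2, magnitude and activity.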
Potency means the concentration at half of the fitted maximal effect; tags describe the fitted curve by direction and shape.

Compound	Potency	activity, negative = toxicity
Cc1cc(C=O)c(C)n1-c1ccc(NC2CCCC2)c([N+](=O)[O-])c1	inconclusive [cytotoxic, partial curve]	
CC1CCN(c2ccc(-c3cccc(NC(=O)c4ccco4)c3)nn2)CC1	inconclusive [cytotoxic, single point]	
Cc1cccc2c1CCCC2=O	inactive	
COc1ccc(C(=O)Nc2nc3ccccc3[nH]2)cc1OC	inconclusive [cytotoxic, single point]	
COc1ccc(C(CNC(=O)C(C)c2ccc3cc(OC)ccc3c2)N(C)C)cc1 (stereo unspecified)	inactive	
CCOc1ccccc1CNC(=O)Cn1ccc2cc(S(=O)(=O)N3CCCC3)ccc21	inconclusive [cytotoxic, partial curve]	
Cc1cc(C)cc(N2C(=O)C=CC2=O)c1	inconclusive [cytotoxic, single point]	
COc1ccc(CN=C2NC(=O)CC(C(=O)Nc3ccc(Cl)cc3)S2)cc1 (stereo unspecified)	inconclusive [cytotoxic, partial curve]	
CCc1ccccc1NC(=O)c1ccc(CN2CCC(Cc3ccccc3)CC2)cc1	inconclusive [cytotoxic, single point]	
COc1ccccc1-c1ccc2c(c1)C(C)(Cc1cc(Cl)ccc1C(F)(F)F)C(=O)N2 (stereo unspecified)	inconclusive [cytotoxic, single point]	
COc1ccccc1N(CC(=O)NCCSCc1ccccc1)S(=O)(=O)c1ccc(C)cc1	inconclusive [cytotoxic, single point]	
O=C(COC(=O)c1ccc2c(c1)S(=O)(=O)c1ccccc1C2=O)NC1CC1	inactive	
CC(=O)N1N=C(c2ccc(C)cc2)OC1c1cccnc1 (stereo unspecified)	inconclusive [rising, single point]	
CCOc1ccccc1NC(=O)CSc1nc(N)c(C#N)cc1C#N	inconclusive [cytotoxic, single point]	
O=C(Nc1ccc(F)cc1)C(=O)c1cn(CC(=O)N2CCOCC2)c2ccccc12	inconclusive [cytotoxic, partial curve]	
O=C(c1ccco1)N1CCN(C(=O)N2c3ccccc3Sc3ccccc32)CC1	inconclusive [cytotoxic, full curve]	
Nc1ccc(-c2ccc(N)cc2C(F)(F)F)c(C(F)(F)F)c1	inconclusive [cytotoxic, single point]	
CC1Cc2ccccc2N1Cc1cccc([N+](=O)[O-])c1 (stereo unspecified)	inactive	
CCCCN(Cc1ccc(Cl)c(Cl)c1)c1ccc(Br)cn1	inactive	
COC(=O)c1ccc(N2CCOCC2)c(NC(=O)c2ccc3c(c2)OCO3)c1	inactive	
Cc1noc(/C=C/Nc2ccc(F)cc2F)c1[N+](=O)[O-]	inconclusive [cytotoxic, single point]	
Cc1ccc(-n2c(O)c(/C=N/Nc3ccc(S(=O)(=O)N4CCOCC4)cc3[N+](=O)[O-])c3ccccc3c2=O)c(C)c1	inconclusive [cytotoxic, single point]	
CCCc1ccc(OCC(O)CN2CCN(c3ccccc3)CC2)cc1 (stereo unspecified)	inconclusive [cytotoxic, single point]	
C#CCOCCOCCOCCNc1nc(N2CCOCC2)nc(N2CCN(C(=O)[C@H](Cc3cc4ccccc4[nH]3)n3cc([C@@H](N)C(C)CC)nn3)CC2)n1 (stereo partly specified)	inactive	

Compound	Potency	activity, negative = toxicity
CCCCn1nnnc1C(c1ccccc1)N1CCN(c2ncc(C(F)(F)F)cc2Cl)CC1 (stereo unspecified)	inactive	
Cc1c2c(nc3ccccc13)CCC(C(C)(C)C)C2 (stereo unspecified)	inactive	
CNc1cncc(-c2cnn(CC(C)C)c2)n1	inactive	
C[N+]1(C2CCC3CCCC2C3O)CCCCC1 (stereo unspecified)	inactive	
CCCN1CNc2c(c(=O)[nH]c(=S)n2CCc2cc(C)cc(C)c2)C1	inconclusive [cytotoxic, single point]	
C[C@@H]1CN([C@@H](C)CO)C(=O)c2cc(NC(=O)Nc3ccc(F)cc3)ccc2O[C@@H]1CN(C)Cc1ccc(Oc2ccccc2)cc1	active: 16.4 µM	
COc1ccc(C2(c3ccc(OC)cc3)NC(=O)N(Cn3nnc4ccccc4c3=O)C2=O)cc1	inactive	
Cc1nc2ccccc2n1C1CCN(CC(=O)Nc2ccccc2Br)CC1	inconclusive [cytotoxic, single point]	
O=S(=O)(NC1CCCC1)c1ccc(S(=O)(=O)N2CCc3ccccc32)cc1	inconclusive [cytotoxic, single point]	
OCC1OC(n2ccc3c(SCc4ccccc4)ncnc32)C(O)C1O (stereo unspecified)	inactive	
Cc1ccc(CN2CCN(Cc3nc4c(s3)CCCC4)CC2CCO)cc1 (stereo unspecified)	inactive	
OC(Cc1ccccc1Br)c1ncc(-c2cccc(C(F)(F)F)c2)[nH]1 (stereo unspecified)	active: 16.4 µM	
CCc1ccc(OCC(=O)Nc2ccc(S(=O)(=O)N3CCCC3)cc2)c(Br)c1	inconclusive [cytotoxic, single point]	
CCCNC(=O)c1ccc(S(=O)(=O)c2ccc(OC)cc2)c([N+](=O)[O-])c1	inconclusive [cytotoxic, partial curve]	
Nc1c(C(=O)NCCC2=CCCCC2)sc2ccc(S(=O)(=O)N3CCCCC3)cc12	inconclusive [cytotoxic, single point]	
O=C(O)c1ccc(NC(=O)c2cccc(S(=O)(=O)Nc3ccc(C(=O)O)cc3)c2)cc1	inactive	
COc1ccc(C2NC(=O)CCC2[N+](=O)[O-])cc1 (stereo unspecified)	inactive	
Fc1ccc(NC(=S)N2CCCN(c3ccc(C(F)(F)F)cn3)CC2)c(F)c1	inconclusive [cytotoxic, single point]	
COc1ccc(-c2cc(=O)n(-c3ccc([N+](=O)[O-])cc3)[nH]2)cc1	inconclusive [cytotoxic, single point]	
Clc1cccc(-c2nnc(SCc3nc4ccccc4[nH]3)n2Cc2ccco2)c1	inactive	
NC(Cc1ccc(Cl)cc1)c1csc(Nc2cc(NCCCO)ncn2)n1 (stereo unspecified)	inconclusive [cytotoxic, single point]	
CCOC(=O)C1=NNC(C(=O)OCC)C1c1ccccc1 (stereo unspecified)	inactive	
O=C(COc1ccc(Cl)cc1)N1CCN(c2cccc(C(F)(F)F)c2)CC1	inconclusive [cytotoxic, single point]	
CC(C)c1ccc(-c2csc(NC(=O)c3cccs3)c2C(=O)O)cc1	inconclusive [cytotoxic, partial curve]	

Compound	Potency	activity, negative = toxicity
O=C(NCc1cccs1)C1Cc2c(-c3ccccc3Oc3ccccc3)ccnc2O1 (stereo unspecified)	inconclusive [cytotoxic, single point]	
CN(C)Cc1c(-c2ccc(Cl)cc2)nc2ccccn12	inconclusive [rising, partial curve]	
COc1ccc(C(=O)NNC(=O)CNC(=O)C2CCCCC2)cc1	inactive	
Cc1cccc(N2CCN(S(=O)(=O)c3ccc4[nH]c(=O)ccc4c3)CC2)c1C	inconclusive [cytotoxic, single point]	
CC1COCC(C)N1C(=O)c1cccnc1 (stereo unspecified)	inactive	
C[C@H]1CN([C@@H](C)CO)C(=O)Cc2cc(NC(=O)CCC(F)(F)F)ccc2O[C@H]1CN(C)S(=O)(=O)c1ccc(Cl)cc1	active: 4.61 µM	
COc1ccc(NC(=S)Nc2ccc3nsnc3c2)cc1	inconclusive [cytotoxic, partial curve]	
CCCCOc1ccc(C(=O)Nc2cc(C)c(OCC(=O)N3CCOCC3)c(C)c2)cc1	inactive	
c1ccc(N2CCN(Cc3ccnc4ccccc34)CC2)cc1	inconclusive [cytotoxic, single point]	
COc1ccc(-c2nc(SCc3ccccc3)n(S(C)(=O)=O)n2)cc1		inconclusive: -0.785% [cytotoxic]
Cc1ccc(CSc2nc3sc(C)c(C)c3c(=O)n2Cc2ccco2)cc1	inactive	
Cc1nc2ccccc2n1CCCOc1ccccc1	inconclusive [cytotoxic, single point]	
COc1ccc(-n2c(SCCC#N)nnc2-c2cc(Cl)ccc2OC)cc1Cl	active: 29.1 µM	
COc1cc(CNCCc2ccccc2)ccc1OCc1ccc(Cl)nc1	inconclusive [cytotoxic, single point]	
C=C(C(=O)c1ccccc1)C(NC(C)(C)C)c1ccccc1 (stereo unspecified)	active: 5.8 µM	
CCC(=O)NC(c1ccc(OC)c(OC)c1)c1cc(Cl)c2cccnc2c1O (stereo unspecified)	inconclusive [cytotoxic, full curve]	
COc1ccc(-c2csc(Nc3ncccc3C)n2)cc1	inconclusive [cytotoxic, single point]	
Cn1c2ccc(F)cc2c2ncn(CCCN(CCO)CCO)c(=O)c21	inconclusive [cytotoxic, partial curve]	
Cc1ccc(-n2ncc(C(=O)NCC3CCN(C4CCCC4)C3)c2C2CCN(C(=O)OC(C)(C)C)CC2)cc1 (stereo unspecified)	inconclusive [cytotoxic, single point]	
COCCCNC(=S)Nc1cccc2ncccc12	inconclusive [cytotoxic, single point]	
COC(=O)Nc1nc2ccc(C(=O)c3cccs3)cc2[nH]1	inconclusive [cytotoxic, full curve]	
CC1CCN(Cc2c(C(=O)N/N=C/c3ccc(OC(C)C)cc3)nnn2-c2nonc2N)CC1	inconclusive [cytotoxic, single point]	
Cc1cccc2c1NC(=O)/C2=C\C(=O)c1cccs1	active: 16.4 µM	
